The structures appear in SMILES notation.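 Protocol summary: plate cells (96-well), add compound at 5 concentrations, incubate 48 h, interpolate endpoints linearly. The concentration for 50% growth inhibition is given as GI50.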 Calls of active or inactive are those of the source. Cut-off read from the data, not from the text of the source: active = GI50 up to about 1.1 µM and inactive = higher.

The assay concerns NCI-H322M. In words: growth of human tumour cells (NCI), 48 h.
Take `O=C(Nc1cc2cc([N+](=O)[O-])ccc2oc1=O)c1cccs1`: the GI50 is inactive: > 100 µM.
As to `O=C(SCc1cccc2ccccc12)c1ccc(Cl)cc1`, the GI50 is inactive: > 100 µM.
For the compound `O=[N+]([O-])C(/C=C(\Cl)[N+](=O)[O-])=C(N1CCCCC1)N1CCCCC1`, the GI50 is inactive: 61.9 µM.
The same measure for `CCN(CC)/C(Sc1ccccc1)=C(\C(Cl)=C(Cl)Cl)[N+](=O)[O-]`: inactive: 21.6 µM.
The same measure for `CN(C)CCn1c(=O)c2ccc3c4c(nn3CCN(C)C)c3cc(O)ccc3n(c1=O)c24`: active: < 0.0108 µM; for `CN1CN(c2ccccc2)C2(CCN(CCCSc3ccccc3NC(=O)/C=C/c3ccccc3)CC2)C1=O`: inactive: > 100 µM.
Take `O=C1NC2C(=CC(O)C(O)C2O)c2cc3c(cc21)OCO3` (configuration not stated): the GI50 was active: 0.43 µM.
As to `C/C(=N\O)c1ccc(Nc2c3ccccc3nc3occc23)cc1`, the GI50 is inactive: 5.87 µM.
For the compound `C/C(=N/NS(=O)(=O)c1ccc(C)cc1)c1cccc[n+]1[O-]`, the GI50 was inactive: > 100 µM.
The same measure for `Cc1nn(C(=O)Cc2ccccc2)c2c1C(c1ccccc1[N+](=O)[O-])SC(=N)N2` (configuration not stated): inactive: > 100 µM.
The same measure for `N#Cc1c(C#N)c(-c2ccco2)n(/N=C/c2ccco2)c1N`: inactive: 33.1 µM.
The same measure for `CCOC(=O)/C(C(=O)c1ccccc1)=C1/NCCN1C`: inactive: > 100 µM; for `COc1cc(C[C@H]2C(=O)OC[C@@H]2Cc2ccc(OC)c(OC)c2)cc(OC)c1`: inactive: > 100 µM; for `CC1=NN(c2nc(N)nc(CBr)n2)C(C)(C)C1`: inactive: 16.1 µM.
In the case of `C/C(=N\NC(=S)N1CCN(c2ccccn2)CC1)c1cccc2cccnc12`, the GI50 was inactive: 3.3 µM.
The same measure for `COc1ccc(CN2C(=O)CCC/C=C\[C@H]2CI)cc1`: inactive: 13.2 µM; for `COC(=O)CC(SCCO)SCCO`: inactive: > 100 µM.
The same measure for `CCCNc1ncnc2c1ncn2C`: inactive: > 100 µM.
As to `C[C@]12CC[C@H]3[C@@H](CC=C4C[C@@H](O)CC[C@@]43C)[C@@H]1C/C(=C\c1cccnc1)[C@@H]2O`, the GI50 was inactive: 37.9 µM.
The same measure for `CCCC(=O)c1ccc2c(ccc(=O)n2C)c1`: inactive: > 100 µM; for `COc1ccc(C2C(C(=O)O)=C(CO)Oc3cc4c(cc32)OCO4)cc1` (configuration not stated): inactive: > 100 µM; for `CCOC(=O)CCC(C(=O)OCC)n1nc2ccc(Nc3c(C)[n+]([O-])c4cc(F)c(OCC)cc4[n+]3[O-])cc2n1` (configuration not stated): inactive: > 100 µM.
The same measure for `Cc1cc(-c2ccc[nH]2)on1`: inactive: > 100 µM; for `CC(NC(=O)C(=O)N/N=C1\C[C@@H](c2ccccc2)Nc2ccccc21)c1ccccc1` (some centres not stated): inactive: > 100 µM; for `C#C[C@]1(O)CCC2C3CCc4cc(Oc5nc(F)nc(-n6c(C)nc7cc8ccccc8cc76)n5)ccc4C3CCC21C` (some centres not stated): inactive: > 100 µM.
The same measure for `CN(Cc1cnc2nc(N)nc(N)c2n1)c1ccc(C(=O)NC(CO)CCCO)cc1` (configuration not stated): inactive: > 100 µM.
Take `COC(=O)Cc1ccc(Oc2nc3ccccc3nc2-c2cccs2)cc1`: the GI50 was inactive: > 100 µM.
Turning to `COC(=O)C(CCCCN)NC(=O)C(CCCCN)NC(=O)C(CCCCN)NC(C)=O.Cc1ccc(C(=O)Nc2ccc(S(=O)(=O)O)c3cc(S(=O)(=O)O)cc(S(=O)(=O)O)c23)cc1NC(=O)c1cccc(NC(=O)Nc2cccc(C(=O)Nc3cc(C(=O)Nc4ccc(S(=O)(=O)O)c5cc(S(=O)(=O)O)cc(S(=O)(=O)O)c45)ccc3C)c2)c1`, the GI50 is inactive: > 50 µM.
The same measure for `C=C1CC(OC(C)=O)/C=C(/C)CCC(C(C)(C)O)CC1O` (configuration not stated): inactive: > 100 µM; for `CC1CN1c1c(C(=O)/C=C/c2ccc(Cl)cc2)c(-c2ccccc2)nn(C)c1=O` (configuration not stated): inactive: 5.27 µM; for `Nc1ccc(-c2nc3ccccc3s2)cc1C#Cc1ccccc1`: inactive: 17.2 µM.
The same measure for `N#C[C@]12CC3(CC[C@H]1CC1(C2)OCCO1)OCCO3`: inactive: > 100 µM; for `CCc1n[nH]c(=O)n1/N=C/c1ccccc1O`: inactive: > 100 µM; for `Cc1cccc(C)c1NC(=O)CCCC(=O)C1CCC/C1=N\NC(=O)C(=O)NN` (configuration not stated): inactive: > 100 µM.
The same measure for `Cc1ccc(C2=Nc3c(c(C)nn3-c3ccccc3)N=C(C(=O)O)C2)cc1`: inactive: > 10 µM.
`Clc1ccc(OCc2nnc(COc3ccc(OCc4nnc(COc5ccc(Cl)cc5Cl)o4)c(Cl)c3)o2)c(Cl)c1`: the GI50 is inactive: 32.7 µM.
With `CC1CCN(c2cc(-c3cc4ccccc4o3)oc(=O)c2C#N)CC1`, the GI50 is inactive: > 100 µM.
With `O=C(N/C=C/C=C/Sc1ccccc1)OCc1ccccc1`, the GI50 is inactive: 19.9 µM.
Turning to `CC1(C)OC(=O)C(=Cc2ccc([N+](=O)[O-])s2)C(=O)O1`, the GI50 is inactive: 43.3 µM.
The same measure for `CC(=O)N1CCOC12N=NC(C)(C)O2` (configuration not stated): inactive: > 100 µM.
The same measure for `Cc1cc(C#N)c(Nc2ccccc2[N+](=O)[O-])s1`: inactive: 22 µM; for `COC[C@@H](/N=C/N1CCc2cc(OC)c(OC)cc2C1)C(C)(C)C`: inactive: > 100 µM; for `C[Si](C)(c1ccccc1)C1CC(=O)CC(=O)C1`: inactive: > 100 µM.
As for `CC(=O)OC1COC(N2C(=O)/C(=N\Nc3ccc([N+](=O)[O-])cc3)c3cc(Br)c([N+](=O)[O-])cc32)C(OC(C)=O)C1OC(C)=O` (configuration not stated), the GI50 was inactive: 69.3 µM.
The same measure for `CC(=O)OI1NC(=O)c2ccccc21`: inactive: > 100 µM; for `COc1ccc(C(=O)/C=C/c2ccc(OCC#N)cc2)cc1OC`: inactive: 18.2 µM; for `O=C1Nc2ccccc2/C1=N/N=C1NCCCCN1`: inactive: > 100 µM.
The same measure for `O=C1N[C@@H]2c3c(Br)sc(Br)c3C(=O)[C@@H]2O1`: inactive: 8.55 µM; for `Cc1cn(CCOCCOC(=O)NC(CCCNC(=N)N)C(=O)O)c(=O)[nH]c1=O` (configuration not stated): inactive: > 100 µM; for `C[C@]12Cc3conc3C(O)=C1CC[C@@H]1C2CC[C@@]2(C)C1CC[C@]2(C)O` (some centres not stated): inactive: 29.5 µM.
The same measure for `CC(C)(C)C1CC[C@H]2c3c([nH]c4ccc(Br)cc34)[C@H]3C(=O)N(c4ccccc4)C(=O)[C@H]3[C@H]2C1` (some centres not stated): inactive: 85.7 µM; for `CCCCCCCCCCC(=O)CCCCCCC(=O)O`: inactive: 19.9 µM.
As for `O=NN(CCCl)C(=O)N[C@H]1CC[C@H](C(=O)O)CC1`, the GI50 is inactive: > 100 µM.
Consider `CC(=O)Oc1cc2c(cc1OC(C)=O)C1(C)CCC2(C)c2cc(OC(C)=O)c(OC(C)=O)cc21`, for which the GI50 was inactive: 32.1 µM.
Turning to `CC(C)(C)C1=CC(=NNC(=S)NCc2ccccc2)C=C(C(C)(C)C)C1=O`, the GI50 was inactive: > 100 µM.
For the compound `Cc1ccc2nc(N/N=C/c3sccc3C)cc(C)c2c1`, the GI50 is inactive: 66.5 µM.
The same measure for `COC(=O)/C=C(\S/C(=C(/c1ccccc1)n1cc(C(=O)OC)c(C(=O)OC)n1)c1ccccc1)C(=O)OC`: inactive: 20.8 µM.
In the case of `Cc1ccc(/C=C2\CNC/C(=C\c3ccc(C)cc3)C2=O)cc1`, the GI50 was inactive: 2.86 µM.
The same measure for `Cc1cc(S(=O)(=O)N2CCNNC2=O)c(S)cc1Cl`: inactive: 5.9 µM; for `N#CCC(=O)N/N=C1/C(=O)NC(=O)C(=O)C1c1nc2ccccc2s1` (configuration not stated): inactive: > 100 µM; for `CC(=O)OC1COC(n2c(=S)n(-c3ccccc3)c(=O)c3ccccc32)C(OC(C)=O)C1OC(C)=O` (configuration not stated): inactive: > 100 µM.
The same measure for `O=C1NC2(CCCCC2)C2CCCCC=C12` (configuration not stated): inactive: > 100 µM; for `COc1ccc2c(c1)CCN1CCc3ccccc3CC21` (configuration not stated): inactive: 48.2 µM; for `CCCCCCCCCCCC(=O)CC(=O)c1c(O)cccc1O`: inactive: 20.2 µM.
For `CC(C)(C)OC(=O)CN1CCNCCN(CC(=O)OC(C)(C)C)CC1`, the GI50 was inactive: > 100 µM.
The same measure for `c1ccc(C2(c3cc4ccccc4[nH]3)OCCO2)cc1`: inactive: 32 µM; for `O=C(OCc1ccccc1)N(CCCCN(CCCNC(=O)C(F)(F)F)C(=O)OCc1ccccc1)CCCNC(=O)C(F)(F)F`: inactive: > 100 µM; for `OC1(c2ccccc2)CCN(Cc2c[nH]c3ccccc23)CC1`: inactive: 68.9 µM.
With `CCOc1c(OC)cc(C2c3cc4c(c(OCC)c3CC3COC(=O)C32)OCO4)cc1OC` (configuration not stated), the GI50 is inactive: 4.38 µM.
The same measure for `O=c1oc2ncccc2n1Cc1ccc([N+](=O)[O-])cc1`: inactive: > 100 µM; for `Cc1nc2c(=S)[nH]ncc2[nH]1`: inactive: > 100 µM; for `C/C=C/CC(C(=O)OCC)(N(C)C(=O)OC(C)(C)C)S(=O)(=O)c1ccc(C)cc1` (configuration not stated): inactive: > 100 µM.
The same measure for `CCOC(=O)C(CC/C=C\c1ccccc1)N1CCC[C@H]1C(=O)OC` (some centres not stated): inactive: > 100 µM.
The same measure for `COc1cccc(/C=C/c2ccc(S(N)(=O)=O)cc2)c1`: inactive: > 100 µM; for `CC(=O)Oc1ccc(/C=C/C(=O)OCCOC(=O)/C=C/c2ccc(OC(C)=O)c(OC(C)=O)c2)cc1OC(C)=O`: inactive: 23.8 µM; for `CCCCCCCCCCCCCCCCCC[N+](C)(C)Cc1ccc(C[N+](C)(C)CCCCCCCCCCCCCCCCCC)cc1`: inactive: 16.4 µM.
For the compound `O=C(O)CN(c1ccccc1)S(=O)(=O)c1ccccc1[N+](=O)[O-]`, the GI50 is inactive: > 100 µM.
The same measure for `O=C(CN1CCCC1)Nc1ccc2sc3ccccc3c(=O)c2n1`: inactive: 20 µM; for `O=C(NNC(=O)c1ccccc1O)c1ccccc1O`: inactive: 1.18 µM; for `CCN(CC)CCC(=O)c1ccc(C)cc1`: inactive: > 100 µM.
On to `Clc1ccc(OCc2nnc3sc(SSc4nn5c(COc6ccc(Cl)cc6)nnc5s4)nn23)cc1`, for which the GI50 is inactive: > 100 µM.
The same measure for `COc1cc(/C=C\c2ccc(O)cc2)cc(OC)c1OC`: inactive: > 100 µM.

The record behind these values is ChEMBL document CHEMBL1201862, “PubChem BioAssay data set” (2004).
